# From PubChem BioAssay AID504466 (National Center for Advancing Translational Sciences (NCATS), 2011)
# In all, about 330,000 compounds went through this assay and about 4,200 (1.3%) were called active. Inconclusive results, whose numbers are uncertain, are shown with a selection of clear calls. The call rests on the fitted dose curve; in most records, active means well fitted activation curve with a large enough effect; inconclusive means small, poorly fitted or top-dose-only effect; inactive means no such curve, though single readings can be large or run the other way. Where the call is inconclusive, the potency comes from a doubtful curve fit.
# Test: qHTS screen for small molecules that induce genotoxicity in human embryonic kidney (HEK293T) cells expressing luciferase-tagged ELG1; further: nearly all actives have a fitted effect of over 60% in size
# Details: HEK293T ELG1-luciferase reporter, luminescence, 16 h; series mostly up to 46 µM
# How it was run: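 Step 1: seed 2,000 HEK293T ELG1-luciferase cells per well. Step 2: add compound or DMSO, incubate 16 hr at 37 °C. Step 3: ONE-Glo, 30 min at room temperature, read luminescence.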
# Potency means the concentration at half of the fitted maximal effect; tags describe the fitted curve by direction and shape.
row,Compound,Potency
1,N#C/C(=C(/O)CN1CCCCC1)c1nc(-c2ccc(Cl)cc2)cs1,"inconclusive: 20.6 µM [activator, partial curve]"
2,Cc1ccc(C(=O)Cn2nnc3ccccc32)cc1C,"inconclusive: 5.8 µM [activator, partial curve]"
3,CCN(C(=O)c1cccs1)c1nnc(-c2ccncc2)s1,"inconclusive: 8.91 µM [activator, partial curve, poor fit]"
4,Cc1nc(N2CCOCC2)nc(N2CCCCC2C)c1[N+](=O)[O-] (centres undefined),inactive
5,Cc1ccc(NC(=O)CN(C)C(=O)Cn2ncc(Cl)c(Cl)c2=O)cc1,"inconclusive: 5.17 µM [activator, partial curve, poor fit]"
6,c1cn2c(NC3CCCC3)c(-c3ccc(N4CCOCC4)cc3)nc2cn1,"inconclusive: 5.17 µM [activator, partial curve, poor fit]"
7,Cc1nc(N)sc1C(=O)N/N=C/c1c[nH]c2ccccc12,active: 8.2 µM
8,O=C(NC(=S)N1CCCc2ccccc21)c1ccc([N+](=O)[O-])cc1,"inconclusive: 29.1 µM [activator, single point]"
9,COc1ccc(-c2cn3ccc(C)cc3n2)cc1,"inconclusive: 0.291 µM [activator, full curve, poor fit]"
10,COc1cccc(/C=N/Nc2nc(-c3cccnc3)nc3ccccc23)c1,inactive
11,Cc1cc(N)n2ncc(-c3ccccc3)c2n1,active: 10.3 µM
12,O=C(COc1ccc2ccccc2c1)N1CCCC1,"inconclusive: 11.2 µM [activator, partial curve, poor fit]"
13,COc1cccc(C(=O)Nc2ncc3c(n2)CC(C)CC3=O)c1 (centres undefined),"inconclusive: 20.6 µM [activator, partial curve, poor fit]"
14,CC(CC(=O)N1CCN(C(=O)c2ccccc2)CC1)c1ccccc1 (centres undefined),inactive
15,CCCCOc1ccc(CSCCN)cc1Cl,"inconclusive: 16.4 µM [activator, partial curve]"
16,Clc1ccc(-n2nnc(-c3cccnc3)n2)cc1Cl,"inconclusive: 20.6 µM [activator, single point]"
17,CN1CCN(S(=O)(=O)c2ccc(-c3ccc(S(=O)(=O)N4CCN(C)CC4)cc3)cc2)CC1,"inconclusive: 29.1 µM [activator, partial curve, poor fit]"
18,Cc1noc(C)c1CSc1nnc(-c2ccccc2)n1Cc1ccco1,"inconclusive: 18.4 µM [activator, single point]"
19,COc1cc(OC)cc(C(=O)Nc2ccc3c(c2)n(C)c(=O)n3C)c1,"inconclusive: 20.6 µM [activator, single point]"
20,CCCCNC(=O)CSc1nc2ccc(N3CCOCC3)cc2c(=O)n1Cc1ccc(OC)cc1,"inconclusive: 18.3 µM [activator, single point]"
21,O=C(N=Nc1c(O)n(Cc2ccccc2)c2ccccc12)c1cc2ccccc2cc1O,"inconclusive: 11.6 µM [activator, partial curve]"
22,N#CC1(NC(=O)COc2ccccc2[N+](=O)[O-])CCCCC1,inactive
23,Nn1c(SCc2c(F)cccc2F)nnc1-c1ccccn1,active: 16.4 µM
24,O=C(CCNC(=O)Cn1ccc2ccccc2c1=O)NCC1CCCC1c1ccccc1 (centres undefined),"inconclusive: 29.1 µM [activator, partial curve, poor fit]"
25,C/C=C(\C)c1nnc(NC(=O)c2ccco2)s1,active: 16.4 µM

row,Compound,Potency
1,Cc1cc(N2CCCCC2)nc2ccc(NC(=O)CCC(=O)NCCC(C)C)cc12,"inconclusive: 14.6 µM [activator, partial curve]"
2,O=C(NC(=S)Nc1ccc2c(c1)C(=O)c1ccccc1C2=O)c1ccc(F)cc1,"inconclusive: 9.2 µM [activator, partial curve, poor fit]"
3,NC(=O)C1CCN(C(=O)CCSc2ccccc2)CC1,"inconclusive: 23.1 µM [activator, single point]"
4,COc1ccc(-c2nc(C#N)c(NCCc3ccccc3)o2)cc1OC,active: 8.2 µM
5,O=C(CNS(=O)(=O)c1ccc(Br)cc1)Nc1ccc2c(c1)OCCO2,inactive
6,COc1ccc2oc(=O)c(-c3nnc(N)s3)cc2c1,"inconclusive: 13 µM [activator, partial curve, poor fit]"
7,CC(OC(=O)c1ccc(NC(=O)CC#N)cc1)C(=O)Nc1nc(-c2ccccc2)cs1 (centres undefined),active: 23.1 µM
8,CN=c1nc(-c2ccccc2)n(-c2ccccc2)s1,"inconclusive: 18.3 µM [activator, single point]"
9,COC(=O)Cc1ccc(NC(=O)C(c2ccccc2)c2ccccc2)cc1,inactive
10,Cc1cc(C(=O)Nc2nc3c(s2)CCCC3)no1,active: 0.794 µM
11,CCOC(=O)c1cc(-c2ccccc2)sc1NC(=O)COC(=O)c1ccc(Cl)c(S(N)(=O)=O)c1,"inconclusive: 23.1 µM [activator, partial curve, poor fit]"
12,COc1ccc(-c2noc(COC(=O)c3ccco3)n2)cc1OC,inactive
13,COc1ccc2c(c1)CCc1cnc(N)nc1-2,inactive
14,Cn1ccnc1-c1ccc(-c2nccn2C)cc1,inactive
15,COC(=O)N/N=C/c1cn(Cc2ccccc2F)c2ccccc12,inactive
16,COc1ccc(N=Nc2c(C)n[nH]c2C)cc1,"inconclusive: 16.4 µM [activator, partial curve, poor fit]"
17,O=C(Nc1ccc(-c2ccc3nncn3n2)cc1)C1CCCCC1,"inconclusive: 0.82 µM [activator, full curve]"
18,CCOc1ccc(N/C=C/C(=O)c2ccccc2)cc1,"inconclusive: 0.411 µM [activator, partial curve]"
19,O=C(/C=C/c1cccc([N+](=O)[O-])c1)Nc1cccc(NC(=O)c2cccs2)c1,inactive
20,COc1ccc(-c2csc(NC(=O)CSc3nc(SC)ns3)n2)cc1,"inconclusive: 25.9 µM [activator, partial curve, poor fit]"
21,Cc1cc(C)n(-c2ccc(C(=O)Nc3ccc4c(c3)OCO4)cc2)n1,"inconclusive: 18.4 µM [activator, partial curve, poor fit]"
22,N/N=C(\Cc1cscn1)c1ccc(O)cc1O,inactive
23,CCOc1nc(C)ccc1-c1noc(-c2ccccn2)n1,inactive
24,COCn1c(-c2cccc(Br)c2)nc2ccccc21,"inconclusive: 10.3 µM [activator, partial curve, poor fit]"
25,CCN1CCN(C(=O)CCc2nnc3ccc(N4CCN(c5cccc(OC)c5)CC4)nn23)CC1,inactive

row,Compound,Potency
1,O=C(N/N=C/c1ccc(OC(=O)c2cccs2)cc1)c1ccccn1,active: 7.3 µM
2,COc1cccc(-c2ccc(-c3noc(-c4cccs4)n3)c(OC)n2)c1,"inconclusive: 12.6 µM [activator, partial curve]"
3,c1ccc(-n2ncc3c(NCCN4CCCCC4)ncnc32)cc1,"inconclusive: 20.6 µM [activator, single point]"
4,COCCSc1nnc(NC(=O)C2CC(=O)N(c3ccc(C)cc3)C2)s1 (centres undefined),inactive
5,CCCn1nnc(NC(=O)/C=C/c2ccc(C(C)C)cc2)n1,"inconclusive: 23.1 µM [activator, single point]"
6,O=C(OCC(=O)N1CCOCC1)c1cccc(S(=O)(=O)N2CCCc3ccccc32)c1,inactive
7,Cc1ccc(Nc2c(-c3ccc(C)o3)nc3cnccn23)cc1,"inconclusive: 16.4 µM [activator, partial curve]"
8,Cc1cc(NC(=O)c2ccc(Cl)cc2)c(C(C)C)cc1O,inactive
9,COc1ccc(C2c3[nH]c4ccccc4c3CCN2C(=O)c2ccc(=O)n(C)n2)c(F)c1 (centres undefined),"inconclusive: 18.3 µM [activator, partial curve, poor fit]"
10,COc1ccc(-c2ccc(OC(=O)NC3CCS(=O)(=O)C3)cc2)cc1 (centres undefined),"inconclusive: 23.1 µM [activator, partial curve, poor fit]"
11,Cc1cc(C)cc(COc2ccc3c(C)c(CC(=O)O)c(=O)oc3c2C)c1,inactive
12,O=C(Nc1ccc2c(c1)Cc1ccccc1-2)c1ccco1,active: 3.26 µM
13,CC(=O)n1cc(N(C(=O)CCl)c2ccc(Cl)cc2)c2ccccc21,inactive
14,Cc1ccc(SCC(=O)c2ccc[nH]2)cc1,"inconclusive: 20.6 µM [activator, partial curve, poor fit]"
15,CS(=O)(=O)c1ccc(-c2cn3cc(C(=O)O)ccc3n2)cc1,inactive
16,O=C(COc1ccc(Br)cc1)NNC(=O)c1ccc(-n2cncn2)c([N+](=O)[O-])c1,inactive
17,CCOC(=O)Cc1c(C)nc2cc(-c3ccc(C)cc3)[nH]n2c1=O,"inconclusive: 14.6 µM [activator, partial curve]"
18,COc1cc(NC(=O)c2cccc(C)c2)ccc1NC(=O)c1cc2ccccc2o1,"inconclusive: 16.4 µM [activator, single point]"
19,O=C1NC(=S)N/C1=C/c1cccc2ccccc12,"inconclusive: 18.3 µM [activator, partial curve, poor fit]"
20,CCOc1ccccc1NC(=O)CCC(=O)Nc1nnc(C2CCCCC2)s1,inactive
21,Cn1c(CCNC(=O)c2ccco2)nc2cc(NC(=O)c3ccco3)ccc21,"inconclusive: 18.4 µM [activator, partial curve, poor fit]"
22,Cc1ccc(-n2cnc3sc(C)c(C)c3c2=O)cc1,"inconclusive: 18.3 µM [activator, partial curve]"
23,CCc1ccc(Nc2ncnc3nc[nH]c23)cc1,"inconclusive: 6.51 µM [activator, partial curve]"
24,CN(C)S(=O)(=O)c1cccc(NC(=O)c2ccc(N3CCOCC3)c([N+](=O)[O-])c2)c1,inactive
